Source: the supplement of paper PMC8728848
Some of the results follow.

How the values were obtained:
Test in all cases: glycan array binding signal (z-score within array); higher = stronger binding
Conditions in all cases: glycan notation: IUPAC condensed, linker removed; mutation: H59Q
[1] = biological target: Neu5Ac(a2-6)GlcNAc(b1-4)GlcNAc(b1-4)GlcNAc
Method in brief: (§1)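 From the Consortium for Functional Glycomics database, 3228 arrays were curated, keeping only those whose protein sequence was available. Binding is given as a within-array Z-score averaged across arrays sharing a protein sequence and across linkers. Negative Z-scores can be read as non-binding.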

Neu5Ac(a2-8)Neu5Ac = biological target: Neu5Ac(a2-8)Neu5Ac
Method in brief: as §1

[2] = biological target: Neu5Ac(a2-8)Neu5Ac(a2-3)Gal(b1-3)GalNAc(b1-4)[Neu5Ac(a2-3)]Gal(b1-4)Glc
Method in brief: as §1

[3] = biological target: Neu5Ac(a2-8)Neu5Ac(a2-3)Gal(b1-3)GalNAc(b1-4)[Neu5Ac(a2-8)Neu5Ac(a2-3)]Gal(b1-4)Glc
Method in brief: as §1

[4] = biological target: Neu5Ac(a2-8)Neu5Ac(a2-3)Gal(b1-4)Glc
Method in brief: as §1

[5] = biological target: Neu5Ac(a2-8)Neu5Ac(a2-3)Gal(b1-4)GlcNAc
Method in brief: as §1

[6] = biological target: Neu5Ac(a2-8)Neu5Ac(a2-3)[Gal(b1-3)GalNAc(b1-4)]Gal(b1-4)Glc
Method in brief: as §1

[7] = biological target: Neu5Ac(a2-8)Neu5Ac(a2-3)[GalNAc(b1-4)]Gal(b1-4)Glc
Method in brief: as §1

[8] = biological target: Neu5Ac(a2-8)Neu5Ac(a2-8)Neu5Ac
Method in brief: as §1

[9] = biological target: Neu5Ac(a2-8)Neu5Ac(a2-8)Neu5Ac(a2-3)Gal(b1-4)Glc
Method in brief: as §1

[10] = biological target: Neu5Ac(a2-8)Neu5Ac(a2-8)Neu5Ac(a2-3)[Gal(b1-3)GalNAc(b1-4)]Gal(b1-4)Glc
Method in brief: as §1

[11] = biological target: Neu5Ac(a2-8)Neu5Ac(a2-8)Neu5Ac(a2-3)[GalNAc(b1-4)]Gal(b1-4)Glc
Method in brief: as §1

[12] = biological target: Neu5Ac(a2-8)Neu5Ac(a2-8)Neu5Ac(a2-8)Neu5Ac(a2-3)[GalNAc(b1-4)]Gal(b1-4)Glc
Method in brief: as §1

[13] = biological target: Neu5Ac(a2-8)Neu5Gc(a2-3)Gal(b1-4)GlcNAc
Method in brief: as §1

[14] = biological target: Neu5Ac(b2-6)Gal(b1-4)GlcNAc
Method in brief: as §1

Neu5Ac(b2-6)GalNAc = biological target: Neu5Ac(b2-6)GalNAc
Method in brief: as §1

[15] = biological target: Neu5Ac9Ac(a2-3)Gal(b1-3)GlcNAc
Method in brief: as §1

[16] = biological target: Neu5Ac9Ac(a2-3)Gal(b1-4)GlcNAc
Method in brief: as §1

[17] = biological target: Neu5Ac9Ac(a2-6)Gal(b1-4)GlcNAc
Method in brief: as §1

[18] = biological target: Neu5Gc(a2-3)Gal(b1-3)GlcNAc
Method in brief: as §1

[19] = biological target: Neu5Gc(a2-3)Gal(b1-3)[Fuc(a1-4)]GlcNAc
Method in brief: as §1

Neu5Gc(a2-3)Gal(b1-4)Glc = biological target: Neu5Gc(a2-3)Gal(b1-4)Glc
Method in brief: as §1

[20] = biological target: Neu5Gc(a2-3)Gal(b1-4)GlcNAc
Method in brief: as §1

[21] = biological target: Neu5Gc(a2-3)Gal(b1-4)GlcNAc(b1-3)Gal(b1-4)GlcNAc(b1-2)Man(a1-3)[Neu5Gc(a2-3)Gal(b1-4)GlcNAc(b1-3)Gal(b1-4)GlcNAc(b1-2)Man(a1-6)]Man(b1-4)GlcNAc(b1-4)GlcNAc
Method in brief: as §1

[22] = biological target: Neu5Gc(a2-3)Gal(b1-4)[Fuc(a1-3)]GlcNAc
Method in brief: as §1

[23] = biological target: Neu5Gc(a2-6)Gal(b1-4)GlcNAc
Method in brief: as §1

Neu5Gc(a2-6)GalNAc = biological target: Neu5Gc(a2-6)GalNAc
Method in brief: as §1

[24] = biological target: Neu5Gc(a2-8)Neu5Ac(a2-3)Gal(b1-4)GlcNAc
Method in brief: as §1

[25] = biological target: Neu5Gc(a2-8)Neu5Gc(a2-3)Gal(b1-4)GlcNAc
Method in brief: as §1

[26] = biological target: Neu5Gc(a2-8)Neu5Gc(a2-3)Gal(b1-4)GlcNAc(b1-3)Gal(b1-4)GlcNAc
Method in brief: as §1

[27] = biological target: Neu5Gc(a2-8)Neu5Gc(a2-6)Gal(b1-4)GlcNAc
Method in brief: as §1

[28] = biological target: Neu5Gc(b2-6)Gal(b1-4)GlcNAc
Method in brief: as §1

B1: rAAL-H59Q (Agrocybe aegerita), Q6WY08 (protein)
chain: MQGVNIYNISAGTSVDLAAPVTTGDIVTFFSSALNLNAGAGNPNNTTLNLFAENGAYLLQIAFRLQENVIIFNSRQPDGPWLVEQRVSDVANQFAGIDGKAMVTVFDHGDKYQVVINEKTVIQYTKQISGLTLSLSYNATEETSIFSTVVEAVTYTGLALEHHHHHH
With B1 the “glycan array binding signal (z-score)” value [1] was -0.083, the “glycan array binding signal (z-score)” value (Neu5Ac(a2-8)Neu5Ac) was -0.102 and the “glycan array binding signal (z-score)” value [2] was -0.109. The “glycan array binding signal (z-score)” value [3] was -0.103, the “glycan array binding signal (z-score)” value [4] was -0.147 and the “glycan array binding signal (z-score)” value [5] was -0.136. The “glycan array binding signal (z-score)” value [6] was -0.079, the “glycan array binding signal (z-score)” value [7] was -0.006 and the “glycan array binding signal (z-score)” value [8] was -0.081. The “glycan array binding signal (z-score)” value [9] was -0.101, the “glycan array binding signal (z-score)” value [10] was -0.054 and the “glycan array binding signal (z-score)” value [11] was -0.025. For the same binder, the “glycan array binding signal (z-score)” value [12] was -0.054, the “glycan array binding signal (z-score)” value [13] was -0.172 and the “glycan array binding signal (z-score)” value [14] was -0.083. For the same binder, the “glycan array binding signal (z-score)” value (Neu5Ac(b2-6)GalNAc) was -0.125, the “glycan array binding signal (z-score)” value [15] was -0.055 and the “glycan array binding signal (z-score)” value [16] was -0.081. For the same binder, the “glycan array binding signal (z-score)” value [17] was -0.114, the “glycan array binding signal (z-score)” value [18] was -0.092 and the “glycan array binding signal (z-score)” value [19] was -0.13. The “glycan array binding signal (z-score)” value (Neu5Gc(a2-3)Gal(b1-4)Glc) was -0.163, the “glycan array binding signal (z-score)” value [20] was -0.129 and the “glycan array binding signal (z-score)” value [21] was 0.041. The “glycan array binding signal (z-score)” value [22] was -0.09, the “glycan array binding signal (z-score)” value [23] was -0.138 and the “glycan array binding signal (z-score)” value (Neu5Gc(a2-6)GalNAc) was -0.145. For the same binder, the “glycan array binding signal (z-score)” value [24] was -0.054, the “glycan array binding signal (z-score)” value [25] was -0.039 and the “glycan array binding signal (z-score)” value [26] was -0.122. The “glycan array binding signal (z-score)” value [27] was -0.072 and the “glycan array binding signal (z-score)” value [28] was -0.027.
